Data reported in the supplement of paper PMC11417369.
This is one part of the list.

test system: PfHDP1 homeodomain (GST-tagged); assay: gcPBM binding intensity (ln(normalized median fluorescence intensity)); higher = stronger DNA binding
Method in brief: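 The highest Masliner-normalised natural-log median intensity across replicate spots of either probe orientation is reported as binding intensity. GST-tagged P. falciparum DNA-binding domains expressed in E. coli were applied for 1 h to an Agilent 4 × 180k array of primer-extended double-stranded 36-bp intergenic genomic probes plus negative controls, and bound protein was detected with Alexa488 anti-GST antibody and scanned at 488 nm.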

Going from “TTTTACTAAATATATACACACATTATACATATATAT [CACACA_site9081]” to “ATAAATAATAAAAAATGTACACATATAAATATAAAG [XGTACX_site727]”, the “gcPBM binding intensity (ln)” value rises from 6.78 to 6.83.

Compared with “ATGATGAAAATAGAAATACACACTAAAAAATAAAAT [CACACA_site1136]”, “AAAACATGTTCAACATGTACACAACAGGATGAATAT [XGTACX_site506]” is higher in “gcPBM binding intensity (ln)” value: 6.69 for the first, 6.94 for the second.

Going from “TATCGAGCCATTTTTACATGCAATTATACATAATTT [TGCATGCA_site987]” to “TTCAAATAATTTAAATGTACGTTGCTTTATTAAAAG [XGTACX_site3674]”, the “gcPBM binding intensity (ln)” value falls from 6.73 to 6.14.

Going from “CATGTATACTATAATACACACTATAAAATATACACC [CACACA_site7121]” to “TAAAATGAATATAGGTGTACTTAAAAAAAAGTAAAA [XGTACX_site4613]”, the “gcPBM binding intensity (ln)” value falls from 6.96 to 6.47.

First: TAAAAGAAATAATATACACACATATATAAAAATAAA [CACACA_site1329]
Second: TAAATTCTTTATAATCGTACATAAATAGAAAAATAA [XGTACX_site601]
The “gcPBM binding intensity (ln)” value of the first is higher: 6.42 for the first, 6.13 for the second.

Compared with “AAAAAAATATATATATATATATATATATATTTATAT [XGTACX_negctrl_site86]”, “TCTTTTTTTAATAAAACATGCAATATTATATATGTA [TGCATGCA_site236]” is lower in “gcPBM binding intensity (ln)” value: 7.62 for the first, 6.73 for the second.

Compared with “GTAATTATTAATAAAACATGCGTATAAAATTTTCTC [TGCATGCA_site50]”, “TAAATTCTTTAAAACTTTAAAACAAAAAAAAAAAAA [CACACA_negctrl_site1078]” is lower in “gcPBM binding intensity (ln)” value: 6.58 for the first, 5.95 for the second.

Compared with “ATAAGAAAATCAAAAAGTACTTTTTACAAAGATAAA [XGTACX_site824]”, “ATATACTATATATAATGTACATATATATTATTATGC [XGTACX_site2957]” is higher in “gcPBM binding intensity (ln)” value: 6.51 for the first, 6.6 for the second.

Compared with “ATTTTATGATATATTTGTACTTAACATTTGGATATA [XGTACX_site5888]”, “TAGTTTTTTATATATTGTACAAATAATATATTATAT [XGTACX_site2564]” is higher in “gcPBM binding intensity (ln)” value: 6.39 for the first, 6.73 for the second.

First: AAACAAAAAATATATACACACTAAACATAAAAAAAA [CACACA_site4185]
Second: AGTGACACCAAAGGGGTGCAATGAAATTAAAAATAT
The “gcPBM binding intensity (ln)” value of the first is lower: 6.7 for the first, 8.54 for the second.

First: TTTATTCATTTCTAAAAATATTAAAATAGAATGAAT [CACACA_negctrl_site325]
Second: TAAAAAAAAATAAATGGTACACAATTAAATGTTTAT [XGTACX_site5255]
The “gcPBM binding intensity (ln)” value of the first is lower: 6.07 for the first, 6.21 for the second.

Going from “CACCATGTTAACAAAGCATGCATCTCTATAGTTTTA [TGCATGCA_site97]” to “AAAAAAAAAAAAAGAACATGCGACTTTAAGAACTGG [TGCATGCA_site792]”, the “gcPBM binding intensity (ln)” value falls from 6.87 to 6.03.

First: CAAATGTGTTCTTCAGGTACAGATACACATTTATGA [XGTACX_site2664]
Second: TATGAAAATAAAATATGTACATATTTTAAATGTTAT [XGTACX_site7352]
The “gcPBM binding intensity (ln)” value of the first is lower: 6.21 for the first, 6.68 for the second.

First: TAAAAAATTATATATTGTACGAATGCATAAAAAAAA [XGTACX_site4606]
Second: TTCAAAGGGAAATTAACACACACATATATATATATA [CACACA_site8777]
The “gcPBM binding intensity (ln)” value of the first is lower: 7.02 for the first, 9.18 for the second.

First: TTTTTAATCTCATATGTATAATATATTTTTATTAAA [XGTACX_negctrl_site236]
Second: AATTTTAGATTTAGCACACATTTTTTTTTTTTTTTT [CACACA_site6105]
The “gcPBM binding intensity (ln)” value of the first is lower: 6.21 for the first, 7.45 for the second.

Compared with TTTATATAAATTTAAGTGCAAAATGAACAAGTGAAA, “CCCAAAAAAAATTTATGTACTTATTAAATATATATA [XGTACX_site6455]” is lower in “gcPBM binding intensity (ln)” value: 10.3 for the first, 6.69 for the second.

First: AAAATATATATTTGTTGTACAATATTAATTATTAAA [XGTACX_site1612]
Second: TTCAATGCTAATTTATGTACATATGTATATAAAATA [XGTACX_site8335]
The “gcPBM binding intensity (ln)” value of the first is higher: 7.05 for the first, 6.28 for the second.

Compared with “TGCAAAGGTGAAAGAACACACAAAAAAAAAAAAAAA [CACACA_site4024]”, “TATGAAATTAGAATTACACACAGGAAAATAAAATGC [CACACA_site6822]” is higher in “gcPBM binding intensity (ln)” value: 6.36 for the first, 6.95 for the second.

Going from “CCCTCCCCATGTTTAGTGCAAAAATATTTGAAATTG [GTGCAC_site9873]” to “TATATATATACCAACACACATACATATATATATATA [CACACA_site1795]”, the “gcPBM binding intensity (ln)” value falls from 10 to 9.04.

Compared with “TGAATAAATATATATACACACATATCTGTATTTATT [CACACA_site4991]”, “AAATTTGGCAGACACACACACACACGCACACGCACA [CACACA_site6423]” is higher in “gcPBM binding intensity (ln)” value: 6.37 for the first, 7.46 for the second.

First: ATCATAAATATAGCAACACACGGATTACATAAAATA [CACACA_site2796]
Second: TTAAAAAAATAATTAACACACACATGTATATCTATA [CACACA_site9026]
The “gcPBM binding intensity (ln)” value of the first is higher: 6.79 for the first, 6.32 for the second.

Compared with “TTGTAATAAATAAAAGTGCAGATATGGTTCCACTAA [GTGCAC_site9942]”, “AATGAACTCACGAGCACACACACACCGATATATATA [CACACA_site4710]” is higher in “gcPBM binding intensity (ln)” value: 6.68 for the first, 7.03 for the second.
